# Results: PubChem BioAssay AID1739 (National Center for Advancing Translational Sciences (NCATS), 2009)
# Inconclusive results are not listed. Calls follow the shape of the dose curve; as a rule, active = well fitted inhibition curve with a large enough effect; inconclusive = small, poorly fitted or top-dose-only effect; inactive = flat fitted curve, though single readings scatter. Some entries of the source have several records that differ or are many. This is not the full list of results. The source may hold further records. Values that stand side by side are repeats (runs, samples, wells, individuals or studies).
# Test: Counterscreen Assay for Enhancers of SMN2 Splice Variant Expression: Modulation of SMN1 Expression
# Settings: HEK293 SMN1-luciferase reporter, luminescence, 30-36 h
# Description: NIH Chemical Genomics Center [NCGC] NIH Molecular Libraries Probe Production centers Network [MLPCN] MLPCN Grant: R03 MH084179-01 Assay Submitter (PI): Elliot Androphy NCGC Assay Overview: Spinal muscular atrophy (SMA) is caused by insufficient levels of the survival motor neuron protein SMN. The SMN locus on chromosome 5q13 contains two inverted copies of SMN called SMN1 and SMN2 which are 99% identical at the amino acid level. SMN1 is a fully functional protein and SMN2 skips exon 7 90% of the time. Skipping of exon 7 produces non-functional protein product. 10% of the SMN2 protein includes exon 7 and is fully functional. In the SMA disease state, mutations in the SMN1 locus are the cause of the disease state. Because only 10% of SMN2 is of the fully functional form, it is not sufficient to overcome the deficiency produced by the loss of the SMN1 product. A therapy that either increase the amount of SMN2 product made or to increase the inclusion of exon 7 has been proposed for the treatment of SMA. We have designed an assay to identify small molecules that can increase the amount of functional SMN2 product by appending a luciferase reporter gene after the native SMN2 gene, such that inclusion of exon 7 in the expressed product places the luciferase sequence in frame, thus generating functional luciferase enzyme. […]
compound,measurement,value
COc1c(C)c2c(c(O)c1C/C=C(\C)CCC(=O)O)C(=O)OC2,Potency,"active: 708 nM, 398 nM, 1.26 µM, 316 nM [separate samples]"
